# Assays:
# [1] = test system: IL-2/ CD3 and CD28 antibody stimulated PBMCs; conditions: for production of IL-17A / production of IL-17F: stimulated PBMC
# [2] = Safety pharmacology studies, ECG and blood pressure in 7- and 28-day dog toxicity studies; conditions: 7- and 28-day toxicity studies in dogs
SMILES,production of IL-17A [1],production of IL-17F [1],"levels of multiple cytokines ([1]; 48 hours of incubation, multiplex assay kit)","adverse effects on the central nervous, cardiovascular, and respiratory systems [2]"
COc1ccc(C2c3[nH]c4ccc(Cl)cc4c3CCN2C(=O)Oc2ccc(Cl)cc2)cc1 (centres unmarked) [PTC-371],did not,did not,–,–
"COc1ccc([C@H]2c3[nH]c4ccc(Cl)cc4c3CCN2C(=O)Oc2ccc(Cl)cc2)cc1 [PTC299, 4-chlorophenyl (S)-6-chloro-1-(4-methoxyphenyl)-1,3,4,9-tetrahydro-2H-pyrido[3,4-b]indole-2-carboxylate]",inhibited,inhibited,decreased,unlikely to cause serious adverse effects
Cc1c(-c2ccc(-c3ccccc3F)cc2)nc2ccc(F)cc2c1C(=O)O [brequinar],inhibited,inhibited,–,–

# Source: US20230172915A1, “DHODH INHIBITOR FOR THE TREATMENT OF COVID-19” (priority 2020, published 2023)
